Test results: PMC9911399, “Two distinct binding modes provide the RNA-binding protein RbFox with extraordinary sequence specificity”
Changes are numbered by the printed parent chain; changes in the protein carry UniProt numbers. The list shows a part of the results.

T1: RBFOX1 RRM (Homo sapiens, UniProt Q9NWB1 109-208)
T1 sequence: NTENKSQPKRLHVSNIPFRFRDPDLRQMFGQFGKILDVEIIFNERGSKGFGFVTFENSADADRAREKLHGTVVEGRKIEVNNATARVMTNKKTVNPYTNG

B1: UCGGGCA (DNA:RNA)
RNA: GGGAGACCGGAAUUCAGAUUGUCCUCGGGCAUUAAAUCCCGUCGUAGCCACCA
DNA 1: CAATCTGAATTCCGGTCTCCC
DNA 2: TGGTGGCTACGACGGGATT
B2: CGAAUCA (DNA:RNA)
RNA: B1 RNA with U25C, C26G, G27A, G28A, G29U
DNA 1: CAATCTGAATTCCGGTCTCCC
DNA 2: TGGTGGCTACGACGGGATT
B3: CGAAGCG (DNA:RNA)
RNA: B1 RNA with U25C, C26G, G27A, G28A, A31G
DNA 1: CAATCTGAATTCCGGTCTCCC
DNA 2: TGGTGGCTACGACGGGATT
B4: ACUGUUC (DNA:RNA)
RNA: B1 RNA with U25A, G27U, G29U, C30U, A31C
DNA 1: CAATCTGAATTCCGGTCTCCC
DNA 2: TGGTGGCTACGACGGGATT
B5: GUUAGAC (DNA:RNA)
RNA: B1 RNA with U25G, C26U, G27U, G28A, C30A, A31C
DNA 1: CAATCTGAATTCCGGTCTCCC
DNA 2: TGGTGGCTACGACGGGATT
B6: ACCAAUA (DNA:RNA)
RNA: B1 RNA with U25A, G27C, G28A, G29A, C30U
DNA 1: CAATCTGAATTCCGGTCTCCC
DNA 2: TGGTGGCTACGACGGGATT
B7: GCUUAUU (DNA:RNA)
RNA: B1 RNA with U25G, G27U, G28U, G29A, C30U, A31U
DNA 1: CAATCTGAATTCCGGTCTCCC
DNA 2: TGGTGGCTACGACGGGATT
B8: CUACUAA (DNA:RNA)
RNA: B1 RNA with U25C, C26U, G27A, G28C, G29U, C30A
DNA 1: CAATCTGAATTCCGGTCTCCC
DNA 2: TGGTGGCTACGACGGGATT
B9: CGGAUUU (DNA:RNA)
RNA: B1 RNA with U25C, C26G, G28A, G29U, C30U, A31U
DNA 1: CAATCTGAATTCCGGTCTCCC
DNA 2: TGGTGGCTACGACGGGATT

The binders below were run against T1, RBFOX1 RRM (assay: EMSA; HiTS-Eq, 1 nM pool, 10 min; buffer printed only for the single-RNA assays: 10 mM Tris pH 7.5, 150 mM NaCl, 3.4 mM EDTA, 0.001% NP-40, 30 C). Conditions: tags: His6 N-terminal (pET28a); label: 5' 32P.
How it was run: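 Relative association constants, normalised to the cognate motif, were derived by comparing read counts of each RNA species with those of the control reaction. The RNA sequenced was the free fraction, separated by 8% native PAGE after a 10 min equilibration in 50 µL of 1 nM 5′-radiolabelled RNA (7 randomized nucleotides) with increasing concentrations of purified wild-type or mutant RbFox RRM.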

Row | Binder | binding signal
1 | B1 | 0.00559 KA relative to UGCAUGU
2 | B2 | 0.00409 KA relative to UGCAUGU
3 | B3 | 0.00799 KA relative to UGCAUGU
4 | B4 | 0.0101 KA relative to UGCAUGU
5 | B5 | 0.0164 KA relative to UGCAUGU
6 | B6 | 0.00156 KA relative to UGCAUGU
7 | B7 | 0.00758 KA relative to UGCAUGU
8 | B8 | 0.00365 KA relative to UGCAUGU
9 | B9 | 0.0218 KA relative to UGCAUGU
